From PubChem BioAssay AID686978 (National Center for Advancing Translational Sciences (NCATS), 2013)
Where “and” joins values, the source holds several entries; their conditions need not be identical. Identical values can stand only once. Hit rate of the full screen: of about 420,000 compounds, about 64,000 (15%) were called active. The shares of active, inactive and inconclusive entries below differ from those in the screen. Calls follow the shape of the dose curve; as a rule, active = well fitted inhibition curve with a large enough effect; inconclusive = small, poorly fitted or top-dose-only effect; inactive = flat fitted curve, though single readings scatter. Where the call is inconclusive, the potency comes from a doubtful curve fit.

Assay: qHTS for Inhibitors of human tyrosyl-DNA phosphodiesterase 1 (TDP1): qHTS in cells in absence of CPT; also: nearly all actives have a fitted effect of over 55% in size
Settings: DT40 Tdp1-/- hTDP1 cells, no CPT, ATP luminescence, 48 h; activity change, negative = growth inhibition: at 46.2 µM (top of the series) unless noted
Outline: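 Camptothecin absent (DMSO only). Human TDP1-complemented DT40 knockout cells, 400 cells/well, 37 °C for minimum 48 hr; ATP measured via CellTiter-Glo, 30 min dark incubation, luminescence.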
% is scaled to controls: 0 for no effect and ±100 for the full control effect; potency is read from the fitted curve at half-maximal effect; tags tell the direction and shape of the fitted curve.

| Structure (SMILES) | Potency | activity change, negative = growth inhibition |
| --- | --- | --- |
| COc1ccc(N2CCN(C(=O)c3nn(-c4ccc(C)cc4)c(=O)n(C)c3=O)CC2)cc1 | inconclusive: 23.1 µM [inhibitor, single point] | – |
| Cc1ccc(C)c(Nc2nnc(-c3ccc(C)c(S(=O)(=O)N4CCCCC4)c3)c3ccccc23)c1 | active: 9.2 µM | – |
| COc1ccc2[nH]c(C(=O)N3CCNCC3)cc2c1OC | inactive | – |
| O=c1n2c(c(O)n1C1CCCCC1)C(c1ccccc1)=Nc1ccccc1C2 | inconclusive: 18.4 µM [inhibitor, single point] | – |
| c1ccc(CNc2cccnc2)cc1 | inactive | – |
| CCN(CC)c1ccc(NC(=O)Cn2c(C(C)NC(=O)c3ccccc3)nc3ccccc32)cc1 (stereo not given) | inconclusive: 29.1 µM [inhibitor, single point] | – |
| CSc1ccc(/C=N/N2CCN(Cc3ccccc3)CC2)cc1 | inactive | – |
| CC1CN(S(=O)(=O)c2ccccc2)CN1C(=O)N1CCOCC1 (stereo not given) | inactive | – |
| Cc1ccc(NC(=O)c2cc(S(=O)(=O)N3CCOCC3)cn2C)cc1Cl | inconclusive: 14.6 µM [inhibitor, partial curve] | – |
| COc1ccc(CNC(=O)CN2C(=O)c3ccc([N+](=O)[O-])cc3C2=O)cc1 | inactive | – |
| COc1cccc(CNC(=O)CN(C)S(=O)(=O)c2ccc3c(c2)c(=O)n(C)c(=O)n3C)c1 | inconclusive: 29.1 µM [inhibitor, single point] | inconclusive: -30.8% [inhibitor] |
| N/C(=N\c1nc(CSc2nc3ccccc3s2)cc(=O)[nH]1)Nc1ccc(F)cc1 | inconclusive: 14.6 µM [inhibitor, partial curve] | – |
| CC(C)c1ccc(NC(=O)C(Cc2ccccc2)NS(=O)(=O)c2ccc3c(c2)CCC(=O)N3)cc1 (stereo not given) | inconclusive: 29.1 µM [inhibitor, single point] | – |
| CCCCN1CC(COCc2ccccc2)Oc2cccc(F)c2S1(=O)=O (stereo not given) | inconclusive: 18.4 µM [inhibitor, single point] | – |
| Cc1nnc(SCc2nnc(-c3cccs3)o2)n1Cc1ccccc1 | inactive | – |
| COc1cc2ncc3c(-c4ccccc4)nn(-c4ccc(C)cc4)c3c2cc1OC | active: 16.4 µM | – |
| O=S(=O)(c1ccccc1)N1CCN=C1SCc1ccccc1Cl | inconclusive: 20.6 µM [inhibitor, partial curve, poor fit] | – |
| COc1ccc(CNC(c2ccccc2)c2ccc(Cl)cc2)cc1 (stereo not given) | active: 16.4 µM | – |
| Cc1cc(C)n(-c2ccc(NC(=O)C3CCCCN3C(=O)c3occc3C)cc2)n1 (stereo not given) | inactive | – |
| CC(=O)C1CCCN(C(=O)c2ccc3nc(Cc4cccc(Cl)c4)oc3c2)C1 (stereo not given) | inconclusive: 25.9 µM [inhibitor, single point] | – |
| CCOC(=O)C1=CCN(S(=O)(=O)c2ccc(F)cc2)C1c1cccc(Cl)c1 (stereo not given) | inconclusive: 23.1 µM [inhibitor, single point] | – |
| N#CC(/C(=N/S(=O)(=O)c1cccs1)c1ccccc1)c1nc2ccccc2[nH]1 (stereo not given) | active: 7.31 µM | – |

| Structure (SMILES) | Potency | activity change, negative = growth inhibition |
| --- | --- | --- |
| COc1cc(C(=O)NCCC(C)C)ccc1OCc1ccc(Cl)cc1Cl | inconclusive: 18.4 µM [inhibitor, single point] | – |
| Cc1ccccc1N=CC=C1OC(C)(C)C(C)(C)O1 | inconclusive: 29.1 µM [inhibitor, single point] | – |
| CCCC(=O)C1=C(O)C(C(=O)OC)C(C)(C)CC1=NC(C)(C)C (stereo not given) | inconclusive: 29.1 µM [inhibitor, single point] | – |
| COc1cc(S(=O)(=O)N2CCCCC2)ccc1NC(=O)/C=C/c1ccccc1 | inconclusive: 29.1 µM [inhibitor, single point] | – |
| COc1ccc(/C=N/NC(=O)CN(C)C(=O)OCc2ccccc2)cc1OC | inactive | – |
| COc1ccccc1C(=O)OCC(=O)Nc1ccc(N2CCCCC2)cc1 | inconclusive: 35.5 µM [inhibitor, single point] | – |
| Cc1ccc(C)c(Cn2ncc3ccccc32)c1 | inconclusive: 23.1 µM [inhibitor, single point] | – |
| N#C/C(=C\c1ccc(-c2ccc(C(=O)O)cc2)o1)c1nc2ccccc2[nH]1 | inconclusive: 18.4 µM [inhibitor, partial curve, poor fit] and inconclusive: 18.4 µM [inhibitor, partial curve] | – |
| O=C(Nc1nc2ccccc2s1)C1CCN(S(=O)(=O)c2cc([N+](=O)[O-])ccc2Cl)CC1 | active: 14.6 µM | – |
| CCOC(=O)C(=O)N(C)c1c(CC)nc2c(OCc3ccccc3OC)cccn12 | inconclusive: 25.9 µM [inhibitor, single point] | – |
| CCOC(=O)N1CCC2(CC1)C(C#N)=C(N)Oc1n[nH]c(CSc3ccc(C)cc3)c12 | inconclusive: 18.4 µM [inhibitor, single point] | – |
| O=C(COc1ccc(C(=O)c2ccccc2)cc1)Nc1cccnc1 | active: 2.91 µM | – |
| Cc1cc(C)n(CC(O)COc2cccc(OCC(O)Cn3nc(C)cc3C)c2)n1 (stereo not given) | inconclusive: 16.4 µM [inhibitor, single point] | – |
| Cc1cccc(NC(=O)c2ccc(-n3cncn3)c([N+](=O)[O-])c2)c1 | inconclusive: 20.6 µM [inhibitor, single point] | – |
| COc1ccc(S(=O)(=O)NCc2ccc(C(=O)N(C)Cc3ccco3)cc2)cc1 | inactive | – |
| COc1ccc(NS(=O)(=O)c2ccc(C)c(C(=O)N3CCN(Cc4cc(OC)ccc4OC)CC3)c2)cc1 | active: 23.1 µM | – |
| C=CCn1c(SCC(=O)NCc2ccc3c(c2)OCO3)nnc1C1CCCCC1 | inconclusive: 25.9 µM [inhibitor, single point] | – |
| CC(c1nc2ccccc2[nH]1)n1c(=O)c(-c2cccs2)nc2ccccc21 (stereo not given) | inconclusive: 23.1 µM [inhibitor, single point] | – |
| CCOC(=O)N1CCN(CC(O)COc2cc(C)ccc2C(C)C)CC1 (stereo not given) | active: 8.2 µM | – |
| Nc1ccc(C(=O)Nc2ccc3cc(S(=O)(=O)O)ccc3c2)cc1 | inactive | – |
| CCc1ccccc1Nc1nn2c(=O)c3ccc(C(=O)NCc4ccccc4Cl)cc3nc2s1 | active: 9.2 µM | – |
| Cc1ccc(NC(=O)NC2CC(=O)N(c3ccc4c(c3)OCCO4)C2)c(C)c1 (stereo not given) | inactive | – |
